Reference: ChEMBL document CHEMBL4888484, “Replenishing the malaria drug discovery pipeline: Screening and hit evaluation of the MMV Hit Generation Library 1 (HGL1) against asexual blood stage Plasmodium falciparum ,using a nano luciferase reporter read-out” (2022)
About 540 (0.36%) of roughly 150,000 compounds showed an effect of 50% or more. The list shows a part of the results.

These compounds were tested on Plasmodium falciparum (assay: Primary screen in NF54 nanoGlo assay, in single point, at 2uM, 72h; a lower Z score goes with more inhibition). Settings: timepoint 72 hour.
Format: functional, Erythrocyte
In the case of CC(NCC(C#N)CCC#N)c1cccc(Br)c1 (centres undefined), the “% Inhibition” value was -12% and the Z score was 1.74. In the case of O=C1CN(c2ccccc2)C(=O)N1CCOc1cccc(Br)c1, the “% Inhibition” value was 0% and the Z score was 0.06. In the case of CCOc1cccc(CNC(=O)C[C@H]2c3ncccc3C(=O)N2c2ccccc2)c1, the “% Inhibition” value was -2% and the Z score was 0.38. For CC(C(=O)NC(=O)NC1CCCCC1)N1CCCC1c1ccc2c(c1)OCCCO2 (centres undefined), the “% Inhibition” value was -16% and the Z score was 2.01. O=S(=O)(C1CC1)N1C[C@@H]2CC[C@H]1CN(C1Cc3ccccc3C1)C2 was tested, and the “% Inhibition” value was -17% and the Z score was 1.8. With CC1CC(C)CN(C(=O)c2ccc(-n3c(-c4ccccc4)cc4c3CCCCC4)cc2)C1 (centres undefined) the “% Inhibition” value was -12% and the Z score was 2.27. With OC[C@]1(O)CCCN(CCOc2ccccc2)CC1 the “% Inhibition” value was -23% and the Z score was 2.98. For O=C(NCc1cc2n(n1)CCCO2)[C@@H]1CCc2cccc(O)c21, the “% Inhibition” value was -8% and the Z score was 1.06. O=C(N[C@H](c1ccc2c(c1)CCO2)C1CC(O)C1)c1ncc(F)cc1F (some centres undefined) was tested, and the “% Inhibition” value was -7% and the Z score was 0.69. COc1cccc(C(=O)N2CCc3cc4ccc(C)cc4nc32)c1 was tested, and the “% Inhibition” value was -8% and the Z score was 0.89. With C[C@H]1CCCN(CC(=O)Nc2cccc3nonc23)C1 the “% Inhibition” value was 5% and the Z score was -0.53. CCOC[C@H]1CCCN1S(=O)(=O)c1cc(-c2ccno2)sc1C was tested, and the “% Inhibition” value was 2% and the Z score was -0.24. For O=C(COc1ccc(Cl)cc1Cl)Nc1onc2c1CCC2, the “% Inhibition” value was 38% and the Z score was -4.87. In the case of Cn1cnn(CC(=O)N[C@H]2CCN(c3ccc(Cl)cc3)C2)c1=O, the “% Inhibition” value was -13% and the Z score was 1.34. In the case of CN(CC1CCOCC1)c1nc2nonc2nc1NC1CCCC1, the “% Inhibition” value was -7% and the Z score was 1.1. For CN1CCN(C[C@@H]2CN(C(=O)c3cc4ccccc4s3)C[C@@H]2CO)CC1, the “% Inhibition” value was -5% and the Z score was 0.83. With Cc1ccc(F)c(CNc2nnc([C@@H]3CCCO3)o2)c1 the “% Inhibition” value was -14% and the Z score was 1.58. COc1ccccc1C(=O)N1CCc2nc(N3CCN(C)CC3)nc(Oc3ccc(C)cc3)c2C1 was tested, and the “% Inhibition” value was 0% and the Z score was 0.02. In the case of CCOCCC1(CNC(=O)c2ccc3nc4n(c3c2)CCC4)CCC1, the “% Inhibition” value was -8% and the Z score was 1.13. With CC(C)CN(CN1C(=O)c2cc(Cl)c(Cl)cc2C1=O)C1CC1 the “% Inhibition” value was -1% and the Z score was 0.16. CN1CCC(n2nccc2NC(=O)c2sccc2Cl)CC1 was tested, and the “% Inhibition” value was -10% and the Z score was 1.28. O=C(O[C@@H](Cc1ccccc1)c1ccccc1)c1cnn2cccnc12 was tested, and the “% Inhibition” value was -3% and the Z score was 0.45. For O=C(COc1ccc2c(c1)OCO2)NCc1ccccn1, the “% Inhibition” value was 1% and the Z score was -0.21. With O=C(NC1CC1)C1CCCC(NCc2cccc3cn[nH]c23)C1 (centres undefined) the “% Inhibition” value was -3% and the Z score was 0.29. C#CC[C@H](OC(=O)c1cnn(C)c1)c1ccccn1 was tested, and the “% Inhibition” value was -15% and the Z score was 2.38. For O=C(Cc1cccs1)NC1CCN(c2nnc3ccc(Cl)cn23)CC1, the “% Inhibition” value was 41% and the Z score was -4.68. Cc1ccccc1-c1cc2n(n1)CCC(=O)N2CC(=O)N1CCN(c2ccccc2)CC1 was tested, and the “% Inhibition” value was -8% and the Z score was 0.79. For CC(C)C[C@@H](C(=O)N1Cc2cccnc2C1)c1ccccc1, the “% Inhibition” value was 28% and the Z score was -3.2. In the case of Cc1c([C@H](C)NCc2ccnn2C2CCCC2)cnn1C, the “% Inhibition” value was -1% and the Z score was 0.13. In the case of COCc1ccc(C(=O)N(CC(C)C)CC2CCN(Cc3ccccc3OC)CC2)s1, the “% Inhibition” value was -9% and the Z score was 1.36. COc1cnc(NC(=O)N(C)Cc2c(C)cccc2C)s1 was tested, and the “% Inhibition” value was -13% and the Z score was 1.38. Cn1c(=O)c2c(nc3n2CC(=O)N3c2ccc(F)cc2F)n(C)c1=O was tested, and the “% Inhibition” value was -10% and the Z score was 1.22. For CCN1CCO[C@@H](CNCc2c(C)nn(CC(C)C)c2Cl)C1, the “% Inhibition” value was -5% and the Z score was 0.77. C[C@H](OC(=O)c1ccc(N(C)C)cc1)C(N)=O was tested, and the “% Inhibition” value was -2% and the Z score was 0.28. With CC(=O)NCCn1cnc(-c2ccccc2)c1-c1cccn1-c1cccnc1 the “% Inhibition” value was -2% and the Z score was 0.33. For Cc1ccc2cc1Oc1cccc(c1)CO[C@H]1CN(C(=O)CN(C)C)C[C@@H]1NC(=O)CN(C)C2=O, the “% Inhibition” value was -6% and the Z score was 1.19. With O=C(Nc1nc(C2CC2)cs1)c1cc(Cl)c[nH]1 the “% Inhibition” value was 2% and the Z score was -0.36. For CCc1[nH]nc(CCc2ccccc2)c1NC(=O)c1ccc(C(F)(F)F)cc1, the “% Inhibition” value was -12% and the Z score was 1.49. For CC(C)(C)CC(=O)N1CCCC[C@H]1C(=O)N1CCOCC1, the “% Inhibition” value was 3% and the Z score was -0.3. With Cc1nn(C)c(C)c1CCC(=O)NC[C@@]12CCC[C@H]1N(CC1CCCCC1)C(=O)CC2 the “% Inhibition” value was 6% and the Z score was -0.73. For COc1ccc(C(=O)N2CCN(C3CCC3)C[C@H](C)C2)nc1, the “% Inhibition” value was 1% and the Z score was -0.08. With CCC(NC(=O)NCc1cnn(CC(F)(F)F)c1)C1CCCCO1 (centres undefined) the “% Inhibition” value was -14% and the Z score was 1.63.
